Reference: PubChem BioAssay AID588501 (NMMLSC, 2011)
Hit rate of the full screen: of about 360,000 compounds, about 420 (0.12%) were called active. Inconclusive means that the source gave no clear call. Such entries were picked first, then a sample of the others. No stated cut-off is given here; in the data, active means inhibition above about 30%; inconclusive means no clear call, values can overlap the other calls; inactive means below that.

These compounds were tested against Lethal factor (Bacillus anthracis) (UniProt P15917) (assay: anthrax lethal factor cleavage blockers – biochemical, multiplex microsphere, MLPCN library, primary screen (AID 588501; further: plate controls were buffer without enzyme for full effect and enzyme alone for no effect)). Details: multiplex microsphere protease cleavage assay, LF; at 10 µM; hits give high values.
Cc1cccc(N2CCN(C(=O)C3CCCN(S(=O)(=O)c4cnc[nH]4)C3)CC2C)c1 (stereo not given) was tested, and the inhibition was inconclusive: -6.4%. With CCCn1c(N)c(C(=O)CSc2nnc3ccccn23)c(=O)n(C)c1=O the inhibition was inconclusive: 4%. CN(CC(=O)Nc1ccccc1C(F)(F)F)C(=O)c1ccc(N2C(=O)CCC2=O)cc1 was tested, and the inhibition was inconclusive: -7.7%. For CC(=O)Nc1cccc(NC(=O)CSc2nc(=O)n(CCN3CCOCC3)c3c2CCC3)c1, the inhibition was inconclusive: 14.4%. O=C(NCCS(=O)(=O)N1CCN(c2ccccc2)CC1)c1cccc(F)c1 was tested, and the inhibition was inconclusive: -4%. In the case of O=C(NNC(=O)c1ccccc1O)c1ccc(Cl)c(S(=O)(=O)N2CCCCC2)c1, the inhibition is reported as inconclusive: 0.1%. In the case of CCOc1ccc(NC(=O)COC(=O)C2CCC(=O)N2)c([N+](=O)[O-])c1 (stereo not given), the inhibition is reported as inconclusive: 3.1%. In the case of CN(C)c1oc(-c2ccccc2)nc1C#N, the inhibition is reported as inactive: -4.4%. For COc1ccccc1NC(=O)C(C)OC(=O)Cn1cnc2c1c(=O)n(C)c(=O)n2C (stereo not given), the inhibition was inconclusive: -2.4%. In the case of COc1ccc(C(=O)NCCSCc2ccccc2C)cc1, the inhibition is reported as inconclusive: -1.5%. In the case of C/C(Cc1ccccc1)=N\NC(=O)CNC(=O)c1ccc(Cl)cc1, the inhibition is reported as inconclusive: -5%. For Cc1cccc(NC2=NC3(CCCCC3)N=C(N)N2)c1, the inhibition was inconclusive: -30.2%. With CCOC(=O)/C(C#N)=C/Nc1ccccc1NS(=O)(=O)c1ccc2c(c1)OCCO2 the inhibition was inconclusive: -3.9%. For CCN(CC(=O)Nc1c(F)cccc1F)C(=O)CCCc1nc2ccccc2c(=O)[nH]1, the inhibition was inconclusive: -3.8%. NS(=O)(=O)c1ccc(-c2ccc(/C=C3\SC(=S)N(C4CCS(=O)(=O)C4)C3=O)o2)cc1 (stereo not given) was tested, and the inhibition was active: 45.7%. In the case of CCCc1cc(=O)oc2cc(OCC(=O)Nc3ccc(S(N)(=O)=O)cc3)ccc12, the inhibition is reported as inactive: -3.3%. For COc1ccc(N2CCC(CNC(=O)Nc3cccc(OC)c3)C2)cc1 (stereo not given), the inhibition was inconclusive: -10.6%. Cn1cnnc1SCC(=O)Nc1ccc(S(N)(=O)=O)cc1 was tested, and the inhibition was active: 33.8%. For CC(COC(=O)c1ccccc1)(COC(=O)c1ccccc1)/[N+]([O-])=C/c1ccccc1, the inhibition was inactive: 1.7%. With COCCCNC(=O)C1CCCN(C(=O)Nc2ccc(OC)cc2)C1 (stereo not given) the inhibition was inconclusive: -1.2%. CCOc1ccc(N2CSC(=S)N(c3ccc(OCC)cc3)C2)cc1 was tested, and the inhibition was active: 31.9%. In the case of COc1ccc(CN2CCC(C(N)=O)CC2)cc1OCc1ccccc1, the inhibition is reported as inactive: 1%. With CCN(CCNC(=O)Nc1ccc(Cl)cc1)c1ccccc1 the inhibition was inactive: -3.1%. With O=c1[nH]c(=O)n(Cc2ccco2)c2c1C(C(F)(F)F)(C(F)(F)F)N=C(c1ccc(F)cc1)N2 the inhibition was inconclusive: -14.4%. In the case of Cc1cccc(NC(=O)COc2coc(CN3CCc4ccccc4C3)cc2=O)c1, the inhibition is reported as inconclusive: -3.7%. With COc1ccc(C(CNC(=O)c2ccc(NS(=O)(=O)c3ccc(F)c(C)c3)cc2)N(C)C)cc1 (stereo not given) the inhibition was inconclusive: -4%. COc1ccc2oc(C(=O)OC(C)C(=O)N(C)c3ccccc3)c(C)c2c1 (stereo not given) was tested, and the inhibition was inconclusive: -5.4%. With C=CCNC(=O)C1CC(=O)N(c2ccc(OCC(=O)Nc3ccc(Cl)cc3)cc2)C1 (stereo not given) the inhibition was inconclusive: -0.4%. For O=S1(=O)[C@H]2C[C@@H]3C=C[C@@]2(CN1Cc1cccc(C(F)(F)F)c1)O3, the inhibition was inactive: -2.4%. For N#Cc1nc(-c2ccco2)oc1NCCCN1CCOCC1, the inhibition was inactive: -9.4%. With CCc1cc2c(s1)NC(=O)CN=C2c1cccs1 the inhibition was inconclusive: -14%. COc1ccc(Cl)cc1C(=O)NNC(=O)C1CCCO1 (stereo not given) was tested, and the inhibition was inconclusive: 0.9%. In the case of CC(C)(CO)NC(=S)NCc1ccco1, the inhibition is reported as inconclusive: -1.7%. COc1cc(OC)cc(-c2nnc(NC(=O)CCS(=O)(=O)c3ccc(C)cc3)o2)c1 was tested, and the inhibition was inconclusive: -2.7%. CCN(CC)C(=O)c1sc2nc(-c3cccs3)cc(-c3ccc(Cl)cc3)c2c1N was tested, and the inhibition was active: 39%. In the case of Cc1cc2oc(=O)c3c(c2cc1OCc1nn[nH]n1)CCCC3, the inhibition is reported as inactive: -4.4%. In the case of CCc1ccc2[nH]c(=O)c(C(c3nnnn3Cc3ccccc3)N3CCOCC3)cc2c1 (stereo not given), the inhibition is reported as inactive: -2.7%. For COc1ccc(NS(=O)(=O)c2ccc(C)c(C(=O)NCC(c3ccco3)N3CCCCC3)c2)cc1 (stereo not given), the inhibition was inconclusive: 0.5%. In the case of CCc1ccc(NC(=O)CS(=O)CC(=O)Nc2ccc(N3CCOCC3)cc2)cc1 (stereo not given), the inhibition is reported as inactive: -3.2%. In the case of CN1C(=O)/C(=C2/C=CC=CN2C)OC1=S, the inhibition is reported as inconclusive: -7.5%. O=C1CN(C(=O)COC(=O)C2CCN(S(=O)(=O)c3ccccc3C(F)(F)F)CC2)c2ccccc2N1 was tested, and the inhibition was inconclusive: -13.9%. COc1ccc(C(=O)Cn2c(C(=O)/C=C/c3ccccc3)nc3ccccc32)cc1 was tested, and the inhibition was inactive: 5.1%. In the case of CCOC(=O)C1=C(C)NC(C)=C(C(=O)OCC)C1c1ccc([N+](=O)[O-])s1, the inhibition is reported as inconclusive: -31.3%. In the case of COc1ccc(C(=O)c2cnc[nH]2)cc1, the inhibition is reported as inconclusive: 55.4%. For CN(C)c1ccc(-c2nn3c(-c4ccccc4Cl)nnc3s2)cc1, the inhibition was inconclusive: -9.2%. O=C(Nn1c(O)c(C=C2N=c3ccccc3=N2)sc1=S)c1ccccc1 was tested, and the inhibition was active: 77.5%. With CC(=O)c1ccc(S(=O)(=O)Nc2c(C)nn(C)c2C)cc1 the inhibition was inconclusive: 1.7%. With Cc1ccc(S(=O)(=O)CCSc2ccc(C(F)(F)F)cn2)cc1 the inhibition was inconclusive: -2.8%. For CC(C)CN(C(=O)COC(=O)c1ccc([N+](=O)[O-])s1)c1c(N)n(Cc2ccccc2)c(=O)[nH]c1=O, the inhibition was inconclusive: 0.8%. CN(Cc1c(C(=O)N/N=C/c2ccccc2O)nnn1-c1nonc1N)C1CCCCC1 was tested, and the inhibition was inactive: -2%. For CCSC1=NC(=O)/C(=C2/C=Cc3ccccc3N2CC)S1, the inhibition was inconclusive: -18.2%. COc1ccc(N=c2oc3cc(O)ccc3cc2C(=O)NCC2CCCO2)c(OC)c1 (stereo not given) was tested, and the inhibition was inconclusive: -14.5%. For CCC(C)NC(=O)[C@@H]1CSC2c3ccccc3C(=O)N21 (stereo not given in full), the inhibition was inactive: 4.2%. O=C(CSc1ncccn1)NCC1CCCO1 (stereo not given) was tested, and the inhibition was inconclusive: -17.6%. In the case of CC(C)Cc1cc(C(=O)NCc2cccnc2)no1, the inhibition is reported as inactive: -10%. In the case of Clc1ccc(CSc2snnc2-c2ccccc2)cc1, the inhibition is reported as inconclusive: -26.8%. With C/C=C(/CCC1NCCc2c1[nH]c1ccccc21)[Si](C)(C)C (stereo not given) the inhibition was inactive: 10.8%. For Cn1nc([N+](=O)[O-])nc1Oc1ccccc1N, the inhibition was inconclusive: -16.5%. With N/C(=N\OC(=O)c1ccccc1)c1ccn[nH]1 the inhibition was inconclusive: -7.7%. With O=[N+]([O-])c1ccccc1OCCCN1CCOCC1 the inhibition was inactive: -1.8%. In the case of COc1cccc(CN(C(=O)Cc2c[nH]c3ccccc23)C(C(=O)NC2CCCCC2)c2cccs2)c1 (stereo not given), the inhibition is reported as inconclusive: -20.9%. With N#Cc1ccc(-c2ccco2)nc1SCC(=O)c1ccc(Cl)cc1 the inhibition was active: 40.6%. In the case of CNC(=S)Nc1cccc(C(=O)OC)c1, the inhibition is reported as inconclusive: -15.5%. For COc1ccc(OC)c(/C=C/c2nc3ccccc3[nH]c2=O)c1, the inhibition was inconclusive: 14.7%. With CCOc1ccccc1NC(=O)c1ccc(S(=O)(=O)N(C)C)cc1 the inhibition was active: 38.6%. With COC(=O)c1ccc2nc(-c3ccccc3)c(Cc3ccccc3OC)n2c1 the inhibition was inactive: -1.1%. For Cc1ccc(N(C)S(=O)(=O)c2cccc(C(=O)Nc3ccc(C)cn3)c2)cc1, the inhibition was inconclusive: -4.2%. With Cc1ccccc1NC(=O)NC1CCCCCCC1 the inhibition was inconclusive: 5.6%. With CCOC(=O)c1ccc(N=C(c2ccccc2)c2c(O)n(C)c(=O)n(C)c2=O)cc1 the inhibition was active: 30.6%. In the case of COc1cccc(C(=O)NCCS(=O)(=O)N2CCCCC2)c1, the inhibition is reported as inconclusive: 21%. In the case of COc1ccccc1N1CCN(Cc2c[nH]c3ccccc23)CC1, the inhibition is reported as inconclusive: -8.8%. For CC1Sc2ccc(C(=O)O)cc2NC1=O (stereo not given), the inhibition was inconclusive: -24.8%. In the case of CC1CC(C)CN(C(=O)c2cccc(S(=O)(=O)N(C)c3ccccc3)c2)C1 (stereo not given), the inhibition is reported as inconclusive: -3%. In the case of CSc1ncccc1C(=O)OCC(=O)NC1CC1, the inhibition is reported as inconclusive: 0%. In the case of CCOc1ccccc1NC(=O)NC1CCN(CC(=O)Nc2ccc3c(c2)OCCO3)CC1, the inhibition is reported as inconclusive: 3.2%. COc1ccc(OCc2cccc(C(=O)Nn3cc([N+](=O)[O-])cn3)c2)cc1 was tested, and the inhibition was inconclusive: -10.8%. In the case of CN1CCC(N(C)C(=O)/C(C#N)=C/c2ccc(OC(F)F)cc2)CC1, the inhibition is reported as inactive: 1%. For CC1CN(C2=NC(=O)/C(=C3/C(=O)N(Cc4ccc(F)cc4)c4ccccc43)S2)CC(C)O1 (stereo not given), the inhibition was active: 32.3%. CC(=NNC(=S)Nc1cccc(Cl)c1)c1ccccn1 was tested, and the inhibition was active: 41.1%. Nc1n[nH]c(C2CC2)c1N=Nc1ccc(Cl)cc1 was tested, and the inhibition was inconclusive: -7.3%. With N#CCSc1nc2c(c(C3CC=CCC3)c1C#N)CCC2 (stereo not given) the inhibition was inconclusive: 1%. Cc1cc(C(=O)N/N=C/C(Cl)=C/c2ccccc2)c(C)o1 was tested, and the inhibition was inconclusive: 2.3%. For CCOC(=O)c1cccc(NC(=O)CSc2nnc(COc3ccccc3)n2CC)c1, the inhibition was inconclusive: -13.6%. With Cc1ccn2c(=O)nc(SCC(=O)Nc3cccc4ccccc34)nc2c1 the inhibition was inconclusive: -1.3%. In the case of COC(=O)N/N=C/c1cc(C)n(-c2ccc(Br)cc2)c1C, the inhibition is reported as active: 30.8%. In the case of COc1ccc(Cc2nnc(SCC(=O)NC3(C#N)CCCCC3)n2N)cc1, the inhibition is reported as inconclusive: -3.8%. C=CCn1c(-c2ccccc2)nc2nc3ccccc3nc21 was tested, and the inhibition was inactive: -1%. For CCOc1ccc(C(=O)Nc2cc(Cl)ccc2-n2cncn2)cc1OC, the inhibition was inconclusive: -0.5%. Cc1nc2ccc(NC(=O)[C@@H](NC(=O)c3c(F)cccc3F)C(C)C)cc2s1 was tested, and the inhibition was active: 39.8%. For COc1ccc(S(=O)(=O)N2CCCC2CNC(=O)C(=O)NCc2ccccc2)cc1 (stereo not given), the inhibition was inconclusive: -8.2%.
